Test results reported in paper PMC4336329 (PLoS ONE, 2015).
Screen size: about 310,000 compounds; about 14,000 (4.5%) showed an effect of 50% or more. The effect is printed as a negative number. The list shows a part of the results.

These molecules were tested against human ether-à-go-go-related gene (hERG) potassium channel (human, UniProt Q12809) (assay: primary screen, population patch clamp on CHO cells stably expressing hERG).
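Note: peak tail current of the secondary pulse compared with the same well before compound.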

Chain of human ether-à-go-go-related gene (hERG) potassium channel (Q12809 whole entry, looked up): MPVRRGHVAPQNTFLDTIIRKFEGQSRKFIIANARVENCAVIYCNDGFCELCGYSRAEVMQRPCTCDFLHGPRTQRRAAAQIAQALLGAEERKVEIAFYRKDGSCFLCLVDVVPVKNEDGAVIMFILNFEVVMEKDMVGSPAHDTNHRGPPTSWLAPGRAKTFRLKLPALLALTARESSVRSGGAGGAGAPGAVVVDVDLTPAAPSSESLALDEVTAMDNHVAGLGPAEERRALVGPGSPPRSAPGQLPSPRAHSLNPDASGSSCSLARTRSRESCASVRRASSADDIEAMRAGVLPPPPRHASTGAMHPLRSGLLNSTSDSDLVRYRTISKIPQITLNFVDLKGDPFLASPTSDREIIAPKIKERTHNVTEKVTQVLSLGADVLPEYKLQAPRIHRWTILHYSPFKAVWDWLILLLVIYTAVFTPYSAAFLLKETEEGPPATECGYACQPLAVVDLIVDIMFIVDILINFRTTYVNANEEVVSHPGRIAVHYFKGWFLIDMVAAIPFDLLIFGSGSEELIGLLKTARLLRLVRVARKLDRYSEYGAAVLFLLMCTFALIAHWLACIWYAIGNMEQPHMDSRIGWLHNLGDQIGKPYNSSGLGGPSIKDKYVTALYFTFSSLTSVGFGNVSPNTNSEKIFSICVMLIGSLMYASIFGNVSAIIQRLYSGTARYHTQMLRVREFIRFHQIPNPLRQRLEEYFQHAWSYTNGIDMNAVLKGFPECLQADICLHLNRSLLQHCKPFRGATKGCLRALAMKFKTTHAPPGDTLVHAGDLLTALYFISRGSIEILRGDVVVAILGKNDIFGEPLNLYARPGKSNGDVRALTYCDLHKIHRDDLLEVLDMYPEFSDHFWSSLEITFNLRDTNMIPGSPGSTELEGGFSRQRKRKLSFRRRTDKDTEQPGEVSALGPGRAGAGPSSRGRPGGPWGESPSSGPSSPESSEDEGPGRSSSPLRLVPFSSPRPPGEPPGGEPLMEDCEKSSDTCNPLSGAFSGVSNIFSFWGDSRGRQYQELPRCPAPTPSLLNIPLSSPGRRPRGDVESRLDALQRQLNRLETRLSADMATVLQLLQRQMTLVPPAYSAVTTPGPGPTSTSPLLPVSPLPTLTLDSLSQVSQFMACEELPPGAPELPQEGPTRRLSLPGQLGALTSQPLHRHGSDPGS

SMILES	hERG current change (%, negative = inhibition) at 10uM [%]
Cc1ccc([N+](=O)[O-])c(C(=O)N/N=C/c2cccs2)c1	2.86
Cc1cnc(C(=O)Nc2ccc(C)c(S(=O)(=O)N(C)C)c2)cn1	-9.47
COc1ccc(N(CC(=O)NCc2cccnc2)S(=O)(=O)c2ccccc2)c(OC)c1	-8.52
O=C(Nc1ccc(Cl)cc1C(=O)NCc1cccnc1)c1ccc(Cl)cc1Cl	-10.2
CCNC(=S)N1CCn2c(nc3ccccc32)C1	3.37
CCCCn1c(N)c(N(C)C(=O)c2cc3c(s2)CCCCC3)c(=O)[nH]c1=O	11
Cc1ccc(S(=O)(=O)Nc2cc(NC(=O)CN3CCOCC3)ccc2Cl)cc1.Cl	-7.58
CC(=O)Nc1ccc(/C=N/N2C(=O)NC(C)(c3ccc(OC(F)F)cc3)C2=O)cc1 (stereo not drawn)	-10.5
O=C(NC(=S)N1CCN(c2ccccn2)CC1)c1ccccc1	11.2
NS(=O)(=O)c1ccc(NC(=O)CCCCC(=O)Nc2ccc(S(N)(=O)=O)cc2)cc1	4.12
Cc1ccc(S(=O)(=O)N(C)CC(=O)N(CC(C)C)C2CCS(=O)(=O)C2)cc1 (stereo not drawn)	-2.85
CCc1ccc(NC(=O)c2sccc2-n2cccc2)cc1	-7.29
COc1cccc(C(=O)Nc2cc(-c3cn4cccnc4n3)ccc2C)c1	-12
CCOc1ccc(-c2nc(-c3ccccc3)no2)cc1OCC	-12.3
CCOC(=O)c1cnn(-c2ccccc2)c1N	9.6
COc1ccc(CN2C(=O)CCC2(C)C(=O)NC2CCCCC2)c(OC)c1 (stereo not drawn)	3.3
CC(=O)Cn1c(CN2CC(C)CC(C)C2)nc2c1c(=O)n(C)c(=O)n2C (stereo not drawn)	2.98
O=C(NCCc1ccc(F)cc1)C(=O)NCC1CCCN1S(=O)(=O)c1ccccc1 (stereo not drawn)	-61.7
COc1ccc(CCNC(=O)c2cccnc2Cl)cc1OC	9.91

SMILES	hERG current change (%, negative = inhibition) at 10uM [%]
Cc1ccc(N2CCN(/N=C/C=C/c3ccccc3)CC2)cc1	10.7
COc1ccc2nc(NC(=O)c3sc4nc(C)cc(C)c4c3N)sc2c1	-8.69
Nc1c(Br)c(=O)[nH]c(=O)n1-c1ccccc1	9.37
CCOC(=O)c1nc2cc3n(c(C)c-2c1C)C(C)C(CC)=C3C.Cl (stereo not drawn)	-66.7
CCOC(=O)C1=C(C)N(c2ccc(C)cc2)C(=O)/C1=C\c1ccc(O)c(OC)c1	-0.0882
OCC[C@H]1C[C@H](O)[C@@H](O)[C@@]2(CCCO2)O1	20.1
O=C(N/N=C(\CC(=O)c1cccs1)C(F)(F)F)c1cccnc1	16.4
COc1ccccc1/C=C/C=N/NC(=O)c1ccc2nc[nH]c2c1	13.6
O=C(CCSc1nnc(-c2ccc(O)cc2)o1)N1CCOCC1	17.9
CCSC(=Nc1ccccc1)C1=C(O)COC1=O	13.9
O=C1CCC(=O)N1CCOP1(=O)COc2ccccc2OC1	20.6
Cc1cc(-c2n[nH]c(=S)n2/N=C/C(Br)=C/c2ccccc2)n[nH]1	9
O=C(O)CCSc1nnc(COc2ccc(Cl)cc2)n1-c1ccccc1	11.6
Cc1ccc(CSc2nnc(-c3cccc(S(=O)(=O)N4CCOCC4)c3)n2C2CCCC2)cc1	-17.7
O=[N+]([O-])c1ccccc1Nc1ccccc1	3.08
Cc1ccc(NC(=O)COC(=O)c2c[nH]c3ccccc23)cc1C	14.5
O=C(CNC(=O)c1sc2ccccc2c1Cl)NCc1ccc(F)cc1	18.3
COc1ccc(C2=NS(=O)(=O)N(C)C(C(=O)N3CCN(C)CC3)=C2)cc1	-1.87
COc1ccc(-c2nnc(C3CCN(S(=O)(=O)c4ccccc4)CC3)o2)cc1	-47.4

SMILES	hERG current change (%, negative = inhibition) at 10uM [%]
CN(C)/C=C/C(=O)c1cnc(-c2ccccn2)s1	16.6
Cc1ccc(NNC(=O)C(O)(c2cccc(C(F)(F)F)c2)c2cccc(C(F)(F)F)c2)cc1	-7.55
CN(C)N=O	24.9
CC(=O)Nc1ccc(S(=O)(=O)NCc2csc(-c3cccnc3)n2)cc1	0.532
Cc1cc(C(=O)CSc2nc3ccccc3o2)c(C)n1CC1CCCO1 (stereo not drawn)	-4.77
COc1ccc2c(c1OC)C(=O)OC2Nc1nc(-c2cc3cc([N+](=O)[O-])ccc3oc2=O)cs1 (stereo not drawn)	14.9
CCCCN(C)CCN1C(=O)C2C(C(=O)Nc3cccc(OC)c3)C3C=CC2(O3)C1C(=O)NC1CCCCC1C (stereo not drawn)	-14.7
CNC(=O)Nc1ccc(Cn2cc(C(F)(F)F)ccc2=O)cc1	16.9
O=C(NCc1ccccn1)C(=O)NCC1OCCCN1S(=O)(=O)c1cc(F)ccc1F (stereo not drawn)	6.44
Cc1ccc(CNC(=O)C2CCC(=O)N(CC3CCCCC3)C2)o1 (stereo not drawn)	13.2
Cc1nc(/N=C\c2ccc(N(C)C)cc2)sc1C	11.5
Cc1cc(C)n(-c2nc3ccccc3n3c(C)nnc23)n1	6.03
COC(=O)c1ccccc1NC(=O)Nc1cccc(C)n1	-1.03
CC(=O)Nc1ccc(Nc2ncnc3c2cnn3-c2ccccc2)cc1	12.9
O=Cc1cn(-c2ccccc2)nc1-c1ccc2c(c1)OCCO2	-0.855
O=C(OCC(=O)N1CCCC1)c1cc(Cl)ccc1Cl	9.45
O=C(COC(=O)CCc1c[nH]c2ccccc12)NCc1ccc(Cl)cc1	-15.5
Cc1ccc(S(=O)(=O)NC2CCCCCC2)cc1C(N)=O	3.28
CCCC1=C(C(=O)OCC)C(/C=C/c2ccccc2)n2ncnc2N1 (stereo not drawn)	16.7
